TetR repression strength data for 102 sequences are collected here from a collection of fitness landscapes (doi:10.1038/s41467-024-54723-y).

Over roughly 18,000 sequences, “TetR repression strength (sort-seq, GFP reporter)” has its median near 0.23; the highest 2% begin near 0.68. The list shows a part of the results.

Sequence of UniProt P04483 (P04483 whole entry): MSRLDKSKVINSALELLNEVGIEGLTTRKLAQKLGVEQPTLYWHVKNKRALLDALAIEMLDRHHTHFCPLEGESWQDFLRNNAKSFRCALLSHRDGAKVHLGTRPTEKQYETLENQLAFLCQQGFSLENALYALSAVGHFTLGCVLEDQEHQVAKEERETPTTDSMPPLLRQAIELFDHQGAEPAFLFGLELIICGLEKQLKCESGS

The assay has as its target TetR (class B, Tn10) (UniProt P04483). Put plainly: TetR repression strength (sort-seq, GFP reporter) (relative to tetO2 = 1); higher = stronger repression. To be noted: E. coli. The essentials:
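Repression strength is the top bin index plus one minus the read-weighted mean bin, relative to the unaltered operator's value. A low-copy library in E. coli SIG10-MAX randomized eight operator positions between a constitutive promoter and sfGFP, with TetR expressed constitutively; cells grew 5 h at 37 °C in LB with 50 µg/mL chloramphenicol and 10^6 were FACS-sorted into 13 bins that were each Illumina-sequenced. Three independent transformations were averaged, keeping only members with ≥30 reads in all replicates and CV ≤0.5.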
Sequence TCCCATACAGTGCGCGAGA gave a TetR repression strength of 0.394.

TCCCGACGAGTATCAGAGA had a TetR repression strength of 0.356.

Regarding TCCCTAAGAGTTGGTGAGA, the TetR repression strength was found to be 0.137.

For the sequence TCCCGCTCAGTAGTAGAGA, the TetR repression strength turned out to be 0.245.

For TCCCAGGCAGTTCCCGAGA, the TetR repression strength stood at 0.435.

TCCCCGTAAGTCAGCGAGA came in with a TetR repression strength of 0.146.

As to TCCCGAGTAGTGTAAGAGA, the TetR repression strength is 0.672.

In the case of TCCCGTTTAGTGTCTGAGA, the TetR repression strength was found to be 0.329.

Turning to TCCCTATTAGTCCGCGAGA, the TetR repression strength amounted to 0.312.

With TCCCATTGAGTGGTGGAGA, the TetR repression strength was found to be 0.122.

Turning to TCCCAGTGAGTAAGAGAGA, the TetR repression strength was 0.258.

In turn, TCCCGGACAGTACGTGAGA had a TetR repression strength of 0.231.

On to TCCCGTCCAGTTCTCGAGA, for which the TetR repression strength stood at 0.00142.

Sequence TCCCATCGAGTCTGAGAGA yielded a TetR repression strength of 0.218.

Sequence TCCCGCGTAGTGCTAGAGA gave a TetR repression strength of 0.152.

In the case of TCCCCGGGAGTTAGTGAGA, the TetR repression strength was 0.121.

The sequence TCCCTCTGAGTCAGGGAGA showed a TetR repression strength of 0.521.

Consider TCCCTTTGAGTCCAGGAGA, for which the TetR repression strength was 0.207.

In turn, TCCCAGCGAGTGGATGAGA yielded a TetR repression strength of 0.354.

Consider TCCCCTTCAGTTATCGAGA, for which the TetR repression strength came out at 0.413.

For the sequence TCCCCGCAAGTAGTGGAGA, the TetR repression strength was found to be 0.292.

TCCCACAAAGTCATTGAGA: the TetR repression strength was found to be 0.33.

In the case of TCCCTAGGAGTGGAAGAGA, the TetR repression strength came to 0.129.

On to TCCCCGGCAGTCCCAGAGA, for which the TetR repression strength came to 0.242.

TCCCGGCAAGTAGGGGAGA had a TetR repression strength of 0.287.

Regarding TCCCACGCAGTAGGTGAGA, the TetR repression strength was found to be 0.138.

Turning to TCCCCTGGAGTCAAGGAGA, the TetR repression strength is 0.32.

TCCCTGTCAGTTACTGAGA: the TetR repression strength was 0.327.

For the sequence TCCCTGAGAGTCTTAGAGA, the TetR repression strength turned out to be 0.158.

For TCCCACGGAGTATCGGAGA, the TetR repression strength amounted to 0.277.

With TCCCAGTCAGTGACAGAGA, the TetR repression strength stood at 0.416.

The sequence TCCCCTTTAGTGCCCGAGA gave a TetR repression strength of 0.556.

In turn, TCCCGGGAAGTGTAGGAGA showed a TetR repression strength of 0.387.

For TCCCAGATAGTAGTCGAGA, the TetR repression strength turned out to be 0.103.

Sequence TCCCGACTAGTAAGGGAGA displayed a TetR repression strength of 0.343.

TCCCTTCAAGTTAGGGAGA: the TetR repression strength came out at 0.226.

Consider TCCCCGAAAGTCGGTGAGA, for which the TetR repression strength was 0.193.

TCCCAAGAAGTTTTTGAGA: the TetR repression strength was 0.192.

Sequence TCCCGAATAGTGTGGGAGA yielded a TetR repression strength of 0.597.

The sequence TCCCGTAGAGTCCGGGAGA displayed a TetR repression strength of 0.231.

For TCCCGGCTAGTGGTAGAGA, the TetR repression strength was determined as 0.269.

As to TCCCTTTAAGTCTGCGAGA, the TetR repression strength worked out at 0.342.

On to TCCCAGTAAGTGCGGGAGA, for which the TetR repression strength stood at 0.118.

For TCCCTGAGAGTGTGCGAGA, the TetR repression strength is 0.197.

With TCCCGCATAGTGCAAGAGA, the TetR repression strength was found to be 0.37.

For TCCCGTGAAGTGTATGAGA, the TetR repression strength came out at 0.338.

As to TCCCTCATAGTTGTTGAGA, the TetR repression strength came out at 0.298.

Take TCCCTAGGAGTAGGTGAGA: the TetR repression strength is 0.294.

Sequence TCCCCGAGAGTTCAAGAGA displayed a TetR repression strength of 0.485.

The sequence TCCCGCGAAGTGGTGGAGA displayed a TetR repression strength of 0.169.

In turn, TCCCTGAGAGTGGAGGAGA had a TetR repression strength of 0.0734.

TCCCGTCAAGTGAAAGAGA registered a TetR repression strength of 0.311.

As for TCCCGTTAAGTGCTAGAGA, the TetR repression strength turned out to be 0.685.

Consider TCCCCGGCAGTTTCAGAGA, for which the TetR repression strength is 0.209.

For the sequence TCCCGCCAAGTAACTGAGA, the TetR repression strength is 0.305.

For the sequence TCCCATATAGTGTCTGAGA, the TetR repression strength stood at 0.

Sequence TCCCAGGAAGTGGATGAGA gave a TetR repression strength of 0.286.

The sequence TCCCGCCGAGTGGGCGAGA gave a TetR repression strength of 0.329.

In turn, TCCCTCGTAGTGAGTGAGA displayed a TetR repression strength of 0.507.

TCCCCACAAGTCGCCGAGA: the TetR repression strength was 0.232.

TCCCTTTCAGTTATTGAGA yielded a TetR repression strength of 0.55.

For the sequence TCCCGTAGAGTAAGGGAGA, the TetR repression strength came out at 0.123.

As for TCCCGATCAGTAGTGGAGA, the TetR repression strength was found to be 0.155.

The sequence TCCCTTTGAGTCTTTGAGA had a TetR repression strength of 0.181.

In turn, TCCCATTGAGTCGCCGAGA registered a TetR repression strength of 0.226.

On to TCCCGCTCAGTGGCCGAGA, for which the TetR repression strength came to 0.397.

As to TCCCGACCAGTCTGGGAGA, the TetR repression strength was 0.205.

Sequence TCCCGGAGAGTTCGGGAGA registered a TetR repression strength of 0.293.

Consider TCCCGGTCAGTGACCGAGA, for which the TetR repression strength worked out at 0.715.

TCCCGTCAAGTATTGGAGA yielded a TetR repression strength of 0.418.

The sequence TCCCGCTAAGTAGGCGAGA gave a TetR repression strength of 0.0386.

Regarding TCCCTCATAGTATCGGAGA, the TetR repression strength amounted to 0.223.

For the sequence TCCCCATTAGTCTCAGAGA, the TetR repression strength was found to be 0.3.

TCCCAAGGAGTATGAGAGA displayed a TetR repression strength of 0.187.

Sequence TCCCGCTGAGTGAAGGAGA showed a TetR repression strength of 0.262.

TCCCCTGGAGTTGATGAGA came in with a TetR repression strength of 0.147.

TCCCGCGTAGTGGGTGAGA yielded a TetR repression strength of 0.218.

TCCCGGGGAGTGACGGAGA: the TetR repression strength worked out at 0.143.

With TCCCGGTCAGTGTTCGAGA, the TetR repression strength is 0.627.

Take TCCCTTCGAGTGTAGGAGA: the TetR repression strength worked out at 0.202.

On to TCCCATTGAGTTTATGAGA, for which the TetR repression strength turned out to be 0.502.

Regarding TCCCAGAGAGTAGAAGAGA, the TetR repression strength was found to be 0.215.

The sequence TCCCGACTAGTGTATGAGA registered a TetR repression strength of 0.264.

TCCCTCTGAGTAACTGAGA had a TetR repression strength of 0.253.

Sequence TCCCTAATAGTGCTTGAGA had a TetR repression strength of 1.01.

TCCCTCCGAGTGCAAGAGA displayed a TetR repression strength of 0.616.

In turn, TCCCTAAGAGTCTGGGAGA gave a TetR repression strength of 0.203.

Consider TCCCGATAAGTAAGGGAGA, for which the TetR repression strength came out at 0.119.

Sequence TCCCAGCTAGTATATGAGA showed a TetR repression strength of 0.209.

As to TCCCCATGAGTATGGGAGA, the TetR repression strength amounted to 0.0719.

TCCCTGGAAGTAAGGGAGA showed a TetR repression strength of 0.0732.

For the sequence TCCCATAGAGTGGGTGAGA, the TetR repression strength was determined as 0.0226.

In turn, TCCCAATGAGTCGTTGAGA registered a TetR repression strength of 0.066.

TCCCGAAGAGTATGCGAGA: the TetR repression strength came to 0.253.

TCCCAGTGAGTGGAAGAGA registered a TetR repression strength of 0.333.

TCCCAAGGAGTCTCCGAGA came in with a TetR repression strength of 0.0754.

As for TCCCATGGAGTACGGGAGA, the TetR repression strength was determined as 0.156.

The sequence TCCCATTAAGTTTGGGAGA returned a TetR repression strength of 0.524.

The sequence TCCCTGTTAGTATGTGAGA returned a TetR repression strength of 0.212.

Consider TCCCTTTGAGTCGGGGAGA, for which the TetR repression strength worked out at 0.183.

Turning to TCCCGGCTAGTACGTGAGA, the TetR repression strength came out at 0.246.

In turn, TCCCGTACAGTGATAGAGA yielded a TetR repression strength of 0.63.
